Three molecules from US12338279B2, “Selective and potent inhibitory antibodies of myostatin activation” (SCHOLAR ROCK, INC., priority 2022, dated 2025) can be followed below.

In data set [1] the test system is biotinylated human pro-myostatin. Briefly: Biacore 8k SPR binding affinity, human pro-myostatin. From the text: (§1) The Biacore™ 8 k SPR system was utilized to evaluate the binding affinity of myostatin antibodies to biotinylated human, murine, and cyno pro-myostatin. Biotin CAPture kit and sensor chips (Cytiva) were utilized in these experiments to immobilize the various antigens, followed by flowing a range of concentrations of each of the test antibodies.

Data set [2] relates to biotinylated murine pro-myostatin. Briefly: Biacore 8k SPR binding affinity, murine pro-myostatin. The arrangement: species or system mouse.
Source text: as §1

Data set [3] has as its target T1, biotinylated cyno pro-myostatin (Macaca fascicularis, UniProt Q95J86).
T1 construct: biotin (label)
Kind of data set: Biacore 8k SPR binding affinity, cyno pro-myostatin. The arrangement: species or system cynomolgus monkey.
Source text: as §1

Data set [4] can be described thus: AC-SINS self-interaction (aggregation behavior). Type of data set: physicochemical. Conditions: cutoff shift >5 nm in plasmon wavelength. In short, it runs like this:
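Antibodies captured on gold nanoparticles coated with polyclonal anti-human-mAb antibodies; self-association shifts the plasmon absorbance maximum toward red. Value reported as plasmon wavelength, with 530 nm as unaggregated reference; shift >5 nm taken as self-interacting.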

B1: Ab108: anti-pro/latent myostatin antibody; CDRs in Tables 2d-f, variable domains Table 3, chains Table 4 (antibody)
heavy: EVQLVESGGGLVQPGGSLRLSCAASGSAFSSYGMSWVRQAPGKGLELVASINSNGGSTYYPDSVKGRFTISRDNAKNSLYLQMNSLRAEDTAVYYCARDLLVGFLQWSHYYGMDVWGQGTTVTVSSASTKGPSVFPLAPCSRSTSESTAALGCLVKDYFPEPVTVSWNSGALTSGVHTFPAVLQSSGLYSLSSVVTVPSSSLGTKTYTCNVDHKPSNTKVDKRV[human IgG4 Fc with S228P (EU numbers) left out]
light: DIVMTQSPLSLPVTPGEPASISCRSSQSLLHSSGHNFLHWYLQKPGQSPQLLIYEVSNRVSGVPDRFSGSGSGTDFTLKISRVEAEDVGVYYCMQQTQYPPTFGGGTKVEIKRTVAAPSVFIFPPSDEQLKSGTASVVCLLNNFYPREAKVQWKVDNALQSGNSQESVTEQDSKDSTYSLSSTLTLSKADYEKHKVYACEVTHQGLSSPVTKSFNRGEC
Regarding B1, in data set [1], the “Ka” value was found to be 5.92e+06 M⁻¹ s⁻¹ and the “Kd (1/s)” value was 0.00105 s⁻¹. For the same molecule, in data set [2], the “Ka” value was 8.42e+06 M⁻¹ s⁻¹ and the “Kd (1/s)” value stood at 0.00183 s⁻¹. Moreover, in data set [3], the “Ka” value came to 6.39e+06 M⁻¹ s⁻¹ and the “Kd” value amounted to 0.00102 s⁻¹. Further, the “aggregation behavior by AC-SINS” value in data set [4] is “did not display aggregation behavior”.

B2: Ab106: anti-pro/latent myostatin antibody; CDRs in Tables 2d-f, variable domains Table 3, chains Table 4 (antibody)
heavy: EVQLVESGGGLVQPGGSLRLSCAASGSAFSSYGMSWVRQAPGKGLELVASINSNGGSTYYPDSVKGRFTISRDNAKNSLYLQMNSLRAEDTAVYYCARDLLVRFLEWAGYYGMDVWGQGTTVTVSSASTKGPSVFPLAPCSRSTSESTAALGCLVKDYFPEPVTVSWNSGALTSGVHTFPAVLQSSGLYSLSSVVTVPSSSLGTKTYTCNVDHKPSNTKVDKRV[human IgG4 Fc with S228P (EU numbers) left out]
light: DIVMTQSPLSLPVTPGEPASISCRSSQSLLHSSGHNFLHWYLQKPGQSPQLLIYEVSNRVSGVPDRFSGSGSGTDFTLKISRVEAEDVGVYYCMQQTQYPPTFGGGTKVEIKRTVAAPSVFIFPPSDEQLKSGTASVVCLLNNFYPREAKVQWKVDNALQSGNSQESVTEQDSKDSTYSLSSTLTLSKADYEKHKVYACEVTHQGLSSPVTKSFNRGEC
Regarding B2, in data set [1], the “Ka” value was determined as 2e+06 M⁻¹ s⁻¹ and the “Kd (1/s)” value worked out at 0.000224 s⁻¹. Also, in data set [2], the “Ka” value came to 1.96e+06 M⁻¹ s⁻¹ and the “Kd (1/s)” value is 0.000317 s⁻¹. In data set [3], the “Ka” value amounted to 1.91e+06 M⁻¹ s⁻¹ and the “Kd” value turned out to be 0.000291 s⁻¹. In addition, in data set [4], the “aggregation behavior by AC-SINS” value is on record as “did not display aggregation behavior”.

B3: Ab104: anti-pro/latent myostatin antibody; CDRs in Tables 2d-f, variable domains Table 3, chains Table 4 (antibody)
heavy: EVQLVESGGGLVQPGGSLRLSCAASGSAFSSYGMSWVRQAPGKGLELVASINSNGGSTYYPDSVKGRFTISRDNAKNSLYLQMNSLRAEDTAVYYCARDLLVKFLSWSHYYGMDVWGQGTTVTVSSASTKGPSVFPLAPCSRSTSESTAALGCLVKDYFPEPVTVSWNSGALTSGVHTFPAVLQSSGLYSLSSVVTVPSSSLGTKTYTCNVDHKPSNTKVDKRV[human IgG4 Fc with S228P (EU numbers) left out]
light: DIVMTQSPLSLPVTPGEPASISCRSSQSLLHSSGHNFLHWYLQKPGQSPQLLIYEVSNRVSGVPDRFSGSGSGTDFTLKISRVEAEDVGVYYCMQQTQYPPTFGGGTKVEIKRTVAAPSVFIFPPSDEQLKSGTASVVCLLNNFYPREAKVQWKVDNALQSGNSQESVTEQDSKDSTYSLSSTLTLSKADYEKHKVYACEVTHQGLSSPVTKSFNRGEC
Regarding B3, the “Ka” value was 3.82e+06 M⁻¹ s⁻¹ in data set [1], 3.58e+06 M⁻¹ s⁻¹ in data set [2] and 4.21e+06 M⁻¹ s⁻¹ in data set [3]. The entries for the “Kd (1/s)” value in data set [1] and in data set [2] were 0.000381 s⁻¹ and 0.000518 s⁻¹, respectively. For the same molecule, the “Kd” value in data set [3] is 0.000322 s⁻¹. Besides, the “aggregation behavior by AC-SINS” value in data set [4] is on record as “did not display aggregation behavior”.
